Residue numbers refer to the chain shown, from its start. These are yes or no findings as the source states them, for the method shown. Some binding calls cover weakened binding; strength is not graded here. Tags and fused reporters may be left off the sequences shown.
Experiments:
Experiment in all cases: two-hybrid; MAR alleles as bait (Gal4 DNA-binding domain, pGBKT7), Nup60 or Nup60(188-388) as prey (Gal4 activation domain, pACT2-2); strain AH109 (pGAL1-HIS3); growth spotted on SC -Trp -Leu -His with 25 mM 3-AT (the legend of Fig. 2 says 5 mM), 3 days
[1] = molecular target: T1, Nup2 meiotic-autonomous region (MAR, amino acids 51-175), wild type, fused to the Gal4 DNA-binding domain (S. cerevisiae) (UniProt P32499)
T1 sequence: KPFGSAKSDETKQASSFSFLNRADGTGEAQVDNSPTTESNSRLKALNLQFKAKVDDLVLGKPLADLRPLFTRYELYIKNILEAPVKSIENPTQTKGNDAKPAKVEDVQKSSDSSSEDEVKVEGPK

By UniProt entry, the sequences of proteins in these tests, tags left out. Where a name states a change or a piece, a line headed by the entry shows the natural chain unless it says otherwise.
UniProt P39705: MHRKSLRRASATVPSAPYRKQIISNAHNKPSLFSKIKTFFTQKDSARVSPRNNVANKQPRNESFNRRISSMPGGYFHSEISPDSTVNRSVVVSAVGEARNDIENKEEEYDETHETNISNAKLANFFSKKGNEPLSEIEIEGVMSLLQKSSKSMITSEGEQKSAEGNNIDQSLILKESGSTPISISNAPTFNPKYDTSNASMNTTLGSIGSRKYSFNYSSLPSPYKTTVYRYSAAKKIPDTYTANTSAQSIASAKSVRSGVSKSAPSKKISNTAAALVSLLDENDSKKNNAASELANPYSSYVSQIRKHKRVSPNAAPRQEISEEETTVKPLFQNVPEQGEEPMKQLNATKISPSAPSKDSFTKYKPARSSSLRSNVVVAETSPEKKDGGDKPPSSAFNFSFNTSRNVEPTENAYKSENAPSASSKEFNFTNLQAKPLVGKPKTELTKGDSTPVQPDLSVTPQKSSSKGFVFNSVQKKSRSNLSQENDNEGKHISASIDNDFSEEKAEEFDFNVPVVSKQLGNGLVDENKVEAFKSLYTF

[2] = molecular target: T2, Nup2 MAR (51-175) F120Y fused to the Gal4 DNA-binding domain (S. cerevisiae) (UniProt P32499)
T2 sequence: T1 sequence with F70Y

[3] = molecular target: T3, Nup2 MAR (51-175) K101E fused to the Gal4 DNA-binding domain (S. cerevisiae) (UniProt P32499)
T3 sequence: T1 sequence with K51E

[4] = molecular target: T4, Nup2 mar(89-130) fused to the Gal4 DNA-binding domain (S. cerevisiae) (UniProt P32499)
T4 sequence: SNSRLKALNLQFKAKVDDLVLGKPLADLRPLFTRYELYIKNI

Substance | binding [1] | binding [2] | binding [3] | binding [4]
Full-length Nup60 fused to the Gal4 activation domain (from UniProt P39705 1-539) | binds | binds | binds | 
Nup60(188-388) fused to the Gal4 activation domain (from UniProt P39705 188-388) (domain or fragment) | binds | no binding | no binding | no binding

Reference: paper PMC9071577
